# In article PMC4336329 (PLoS ONE, 2015):
# Screen size: about 310,000 compounds; about 2,200 (0.71%) showed an effect of 50% or more. The effect is printed as a negative number. This is one part of the list.
# Target: human ether-à-go-go-related gene (hERG) potassium channel (human, UniProt Q12809)
# Experiment: primary screen, population patch clamp on CHO cells stably expressing hERG
# Chain of human ether-à-go-go-related gene (hERG) potassium channel (Q12809 whole entry, looked up): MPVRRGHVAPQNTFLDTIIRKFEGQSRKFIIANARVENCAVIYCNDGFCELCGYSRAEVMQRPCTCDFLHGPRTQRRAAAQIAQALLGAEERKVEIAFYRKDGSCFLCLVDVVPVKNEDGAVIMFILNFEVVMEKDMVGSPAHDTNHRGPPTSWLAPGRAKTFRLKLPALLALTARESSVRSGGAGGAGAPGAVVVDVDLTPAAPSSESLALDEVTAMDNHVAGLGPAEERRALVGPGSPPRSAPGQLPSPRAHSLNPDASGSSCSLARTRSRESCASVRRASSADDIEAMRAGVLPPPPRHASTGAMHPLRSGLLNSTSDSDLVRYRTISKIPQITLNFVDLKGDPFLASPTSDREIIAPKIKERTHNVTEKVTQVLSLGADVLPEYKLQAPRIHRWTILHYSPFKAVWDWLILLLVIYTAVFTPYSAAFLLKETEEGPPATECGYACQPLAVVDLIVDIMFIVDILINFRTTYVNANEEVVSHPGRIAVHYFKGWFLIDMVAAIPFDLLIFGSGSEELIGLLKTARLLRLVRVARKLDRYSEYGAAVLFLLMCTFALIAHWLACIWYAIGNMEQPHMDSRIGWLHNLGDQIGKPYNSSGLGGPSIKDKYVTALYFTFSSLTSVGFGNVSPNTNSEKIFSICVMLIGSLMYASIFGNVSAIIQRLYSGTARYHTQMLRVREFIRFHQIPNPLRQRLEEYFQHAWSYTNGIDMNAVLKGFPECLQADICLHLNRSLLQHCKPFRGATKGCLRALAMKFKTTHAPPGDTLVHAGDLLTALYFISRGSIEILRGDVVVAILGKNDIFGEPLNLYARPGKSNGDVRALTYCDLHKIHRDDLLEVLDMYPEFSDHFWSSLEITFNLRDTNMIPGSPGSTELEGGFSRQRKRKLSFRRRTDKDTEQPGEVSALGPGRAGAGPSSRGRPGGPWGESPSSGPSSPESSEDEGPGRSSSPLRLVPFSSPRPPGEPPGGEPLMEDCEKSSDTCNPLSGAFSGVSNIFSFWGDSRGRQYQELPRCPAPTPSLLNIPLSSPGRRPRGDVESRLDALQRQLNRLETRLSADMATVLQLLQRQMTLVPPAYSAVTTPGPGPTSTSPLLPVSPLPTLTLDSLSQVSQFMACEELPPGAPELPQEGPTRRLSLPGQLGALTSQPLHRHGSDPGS
row,SMILES,"hERG current change (%, negative = inhibition) at 1uM"
1,Cc1cc(C)cc(-c2nc(-c3ccncc3)no2)c1,15%
2,CC(=O)c1sc(-c2ccccc2Cl)nc1C,8.68%
3,Cc1ccc(OC(=O)Cn2c(C(F)(F)F)nc3ccccc32)cc1,1.96%
4,O=c1c2ccccc2oc2cc(C#CC3(O)CCCCC3)ccc12,15.9%
5,CCOC(=O)C1=C(C)NC(=S)N(C(C)=O)C1c1ccc(OC)c(OC)c1 (centres unmarked),11.7%
6,C#CC(C)OC(=O)Nc1cnccc1C(F)(F)F (centres unmarked),9.17%
7,Cc1nc(C/C(=N\Nc2ccccc2)c2ccc(O)cc2O)cs1,2.56%
8,Cc1cccc(CSC2=NCCN2C(=O)c2ccc(S(=O)(=O)N(C)C)cc2)c1,8%
9,COc1ccc(NC(=O)CN2CCN(S(=O)(=O)c3ccc(C(C)C)cc3)CC2)cc1OC,-6.98%
10,Cc1cc2cc(CNC(=O)Nc3cccc(Cl)c3)ccc2n1C,17%
11,COc1ccc(C(=O)N/C(=C\c2ccco2)C(=O)NCCCn2ccnc2)cc1,-0.883%
12,NC(=O)NN=C1C2CCCC1C(c1ccccc1)NC2c1ccccc1 (centres unmarked),11.9%
13,COc1cccc(CN(C)C(=O)[C@@H](NC(=O)c2ccc(C)cc2)C(C)C)c1,1.72%
14,CN(C(=O)CSc1nnc(-c2ccncc2)n1-c1ccccc1)C1CCS(=O)(=O)C1 (centres unmarked),13.7%
15,CC(C)(C)CN1CCNC(=O)C1CC(=O)NCCc1cnn(-c2ccccc2)c1 (centres unmarked),5.53%
16,Cc1ccc(/C=C(\C#N)c2nn(-c3ccccc3)c(N)c2C#N)cc1,7.54%
17,CCN(CC)CCP(=O)(c1ccccc1)c1ccccc1,-0.32%
18,COc1ccc(CN(C)C(=O)c2cccc(Oc3ccccc3)c2)c(OC)c1OC,9.3%
19,COc1ccc(OCC(O)CNC(=O)Nc2cc(F)ccc2C)cc1 (centres unmarked),7.6%
20,Cc1ccc(-n2c(C)nnc2SCC(=O)N2CCOCC2)cc1,16.1%
21,O=C(COC(=O)c1ccc2ncsc2c1)Nc1cc([N+](=O)[O-])ccc1Cl,7.27%
22,COc1ccc(-c2nc(C(=O)O)cs2)cc1OC,2.58%
23,CCOC(=O)N1CCN(C(=O)c2ccc(Cn3c(=S)[nH]c4cc(C(=O)OC)ccc4c3=O)cc2)CC1,15.6%

row,SMILES,"hERG current change (%, negative = inhibition) at 1uM"
1,O=C(NCc1ccc(Cl)cc1)C(=O)NCC(c1ccco1)N1CCOCC1 (centres unmarked),-0.387%
2,COc1ccc(CCNC(=O)C2CCCN(S(=O)(=O)c3ccccc3)C2)cc1 (centres unmarked),5.33%
3,CCc1ccc(NC(=O)c2noc3c2CCCCC3)cc1,12.2%
4,O=C(O)C(=O)O.O=C(c1ccccc1F)N1CCN(Cc2ccc3c(c2)OCO3)CC1,13%
5,CCN1CNC(=S)N(c2ccccc2C)C1,13.9%
6,O=C1C(Cl)=C(Nc2ccc(O)cc2)C(=O)c2ccccc21,15.1%
7,CC(=O)Nc1nonc1NC(=O)CSc1ccccn1,8.05%
8,Cc1ccc(Cn2cc(/C=N/Nc3ccc([N+](=O)[O-])cn3)c3ccccc32)cc1,0.803%
9,CN(c1cccc(Cl)c1)S(=O)(=O)c1cccc(C(=O)Nc2nc3ccccc3[nH]2)c1,6.67%
10,CCn1nnc(NC(=O)COc2cc(C)ccc2C(C)C)n1,2.62%
11,Cc1ccc(CNC(=O)c2cc3cc(Br)ccc3oc2=N)cc1,8.2%
12,Cc1ccc(NC(=S)N(CCCN2CCCC2)Cc2cccn2Cc2ccc(Cl)cc2)cc1,7.04%
13,COc1ccc(OC)c(S(=O)(=O)NC2CCCCC2)c1,-6.21%
14,CCCOC1CCCN(C(=O)CCc2nnc(Cc3cccc(C)c3)o2)C1 (centres unmarked),15.5%
15,OCc1ncccc1O,8.62%
16,COc1cccc(/C=C2\Oc3cc(OCC(=O)N4CCC[C@H]4C(=O)O)ccc3C2=O)c1,3.77%
17,COc1ccccc1C/C(N)=N/OC(=O)c1cccc([N+](=O)[O-])c1,4.26%
18,CCCCc1nnc(NC(=O)c2ccc3[nH]c(=O)c(=O)[nH]c3c2)s1,-4.08%
19,CC(C)NC(=O)C(=O)NCCN1CCN(C(=O)c2ccc(C(C)(C)C)cc2)CC1,5.85%
20,Cc1cccc(S(=O)(=O)NCC2CCCO2)c1 (centres unmarked),8.2%
21,CCCCCn1nc(C(=O)N(CCOC)c2c(N)n(CCCC)c(=O)[nH]c2=O)c2ccccc2c1=O,1.15%
22,Cc1cccc(-c2noc(CCC(=O)NCc3ccccc3)n2)c1,3.69%
23,O=C(NNC(=O)C1CC1)c1cc(Cl)nc2ccccc12,10.7%

row,SMILES,"hERG current change (%, negative = inhibition) at 1uM"
1,O=C(NCc1ccccc1)C1CCC(=O)N(CCCN2CCCC2=O)C1 (centres unmarked),11.5%
2,CN1CCN(Cc2cn[nH]c2-c2ccc(F)cc2F)[C@@H](c2ccccc2)C1,3.92%
3,CCOC(=O)CNS(=O)(=O)c1ccc(C(=O)O)cc1,8.84%
4,O=C(O)c1ccccc1Nc1ccnc(C(F)(F)F)c1,13.9%
5,C=CCNS(=O)(=O)c1ccc(OCC(=O)OC)cc1,4.49%
6,Cc1ccc(C(=O)N2CC3(C(C)C)CN(C(=O)c4ccc(C)cc4)CC(C(C)C)(C2)C3=O)cc1,-0.155%
7,CCC(=O)Oc1ccc2oc(=O)cc(C)c2c1,12.9%
8,O=C(c1cccc([N+](=O)[O-])c1)N1CCN(c2ccccn2)CC1,5.24%
9,O=C(O)c1ccc(N2C(=O)c3cccc4c(C(=O)O)ccc(c34)C2=O)cc1,20.4%
10,COC(=O)[C@H]1[C@@H](C)N(CCc2cc(OC)c(OC)c(OC)c2)C(=O)N[C@H]1c1ccccc1,5.47%
11,CC(C)c1nc(CNC(=O)CC2C(=O)NCCN2Cc2cccc(F)c2F)cs1 (centres unmarked),0.765%
12,Brc1ccc(-c2nn3c(-c4ccco4)nnc3s2)o1,-1.41%
13,CCOC(=O)C1CCN(C(=O)C2(NC(=O)Nc3ccccc3Cl)CCCCC2)CC1,-3.58%
14,O=C(Nc1ccc(F)cc1F)C1CCN(C(=O)c2ccc(Br)cc2)CC1,6.25%
15,CCc1nnc(NS(=O)(=O)c2ccc(N)cc2)s1,10.6%
16,Cc1cc(N=Cc2cc(Cl)ccc2O)no1,1.39%
17,CN(CC(=O)Nc1ccccc1F)CC(=O)Nc1ccc(F)c(F)c1F,11.8%
18,N#Cc1cnn(Cc2ccccc2)c1/N=C/N1CCOCC1,4.04%
19,COc1ccc(-c2nc3c(n2O)CCC/C3=N\O)cc1,-1.25%
20,COc1ccccc1OCC(=O)Nn1c(=S)[nH]c2ncccc2c1=O,18.9%
21,Cc1cc(C)cc(N(CC(=O)N2CCN(Cc3ccccc3)CC2)S(=O)(=O)c2c(C)noc2C)c1,4.41%
22,N#Cc1ccc(S(=O)(=O)N2CCCN(c3nc4ccc(Cl)cc4s3)CC2)cc1,1.25%
23,CN(C)/C=C/c1oc2ccc(O)cc2c1[N+](=O)[O-],13.4%

row,SMILES,"hERG current change (%, negative = inhibition) at 1uM"
1,Nc1ccccc1Sc1ccc(C(F)(F)F)cc1[N+](=O)[O-],5.26%
2,CC(C)CC(=O)N1CC(=O)Nc2ccc(F)cc2C1c1ccccc1 (centres unmarked),8.7%
3,CC(C)c1nc2sc3c(=O)[nH]cnc3c2c2c1CCC2,0.538%
4,COC(=O)c1ccccc1NC(=O)CSc1nc(Nc2ccccc2)nc(N2CCOCC2)n1,-5.58%
5,CNC(=O)CSc1nc2cccnc2n1C1CCCCC1,14.7%
6,CCc1nc(C)cc2c1sc1ccccc12.Cl,5.22%
7,CCn1cc(C(=O)NCC2CCCO2)c(=O)c2cc(S(=O)(=O)N3CCCCCC3)ccc21 (centres unmarked),-2.99%
8,O=C(COc1ccccc1)NCC(=O)N/N=C/c1ccc(Cl)cc1,6.92%
9,CCN(CC)S(=O)(=O)c1ccc(-c2nnc(SCC(=O)Nc3cc(OC)cc(OC)c3)o2)cc1,-11.4%
10,O=C(N/N=C/c1cn[nH]c1-c1ccc(Cl)cc1)c1ccc([N+](=O)[O-])cc1,-2.03%
11,O=C(C1=C(O)C(=O)N(CCOCCO)C1c1cccs1)c1cccs1 (centres unmarked),8.78%
12,COc1cc(CC(=O)OCC(=O)NC2CCCC2)cc(OC)c1OC,17.1%
13,O=C(OCC(=O)N1CCCc2ccccc21)c1c(F)cccc1F,16.5%
14,CCN1CCN(c2ccccc2NC(=O)c2ccc(-n3cccn3)cc2)CC1,-5.59%
15,Cc1nnc(NC(=O)CSc2nc(CC(C)C)nc3c2c(=O)n(C)c(=O)n3C)s1,0.95%
16,CCC(=O)c1ccc(OCC(=O)NC2CCCC2)cc1,18.5%
17,COc1ccc(Nc2cc(Cl)nc(N)n2)cc1OC,13.5%
18,COc1ccc(/C=C(/NC(=O)c2ccc(C)cc2)C(=O)NCc2ccncc2)cc1,-21.3%
19,Cc1c(Br)c([N+](=O)[O-])nn1CC(=O)NCc1cccnc1,-3.68%
20,O=c1oc2ccc(Br)cc2cc1-c1nc2ccccc2o1,12%
